The values below come from PubChem BioAssay AID488969 (Vanderbilt High Throughput Screening Facility, 2010).

The full ranking holds about 110,000 compounds; the median of “z-score” is about -0.1, and the highest 2% start at about 2. Some of the results follow. Active and inactive are the calls of the source.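 Rule for the calls: active = z-score in the third read window above 3 or below -3; inactive = the rest.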

This test addresses Metabotropic glutamate receptor 8 (Rattus norvegicus) (UniProt P70579). In words: rat mGluR8 modulators via GIRK flux, primary screen, cell-based, thallium flux, HTS (AID 488969). The note with it: HEK293 rat mGluR8, GIRK (G protein-gated inwardly rectifying potassium channel) thallium flux, FluoZin2; at 10 µM; stronger effect = higher value; submaximal glutamate (EC20) added with thallium.
Chain of UniProt P70579 (P70579 whole entry, looked up): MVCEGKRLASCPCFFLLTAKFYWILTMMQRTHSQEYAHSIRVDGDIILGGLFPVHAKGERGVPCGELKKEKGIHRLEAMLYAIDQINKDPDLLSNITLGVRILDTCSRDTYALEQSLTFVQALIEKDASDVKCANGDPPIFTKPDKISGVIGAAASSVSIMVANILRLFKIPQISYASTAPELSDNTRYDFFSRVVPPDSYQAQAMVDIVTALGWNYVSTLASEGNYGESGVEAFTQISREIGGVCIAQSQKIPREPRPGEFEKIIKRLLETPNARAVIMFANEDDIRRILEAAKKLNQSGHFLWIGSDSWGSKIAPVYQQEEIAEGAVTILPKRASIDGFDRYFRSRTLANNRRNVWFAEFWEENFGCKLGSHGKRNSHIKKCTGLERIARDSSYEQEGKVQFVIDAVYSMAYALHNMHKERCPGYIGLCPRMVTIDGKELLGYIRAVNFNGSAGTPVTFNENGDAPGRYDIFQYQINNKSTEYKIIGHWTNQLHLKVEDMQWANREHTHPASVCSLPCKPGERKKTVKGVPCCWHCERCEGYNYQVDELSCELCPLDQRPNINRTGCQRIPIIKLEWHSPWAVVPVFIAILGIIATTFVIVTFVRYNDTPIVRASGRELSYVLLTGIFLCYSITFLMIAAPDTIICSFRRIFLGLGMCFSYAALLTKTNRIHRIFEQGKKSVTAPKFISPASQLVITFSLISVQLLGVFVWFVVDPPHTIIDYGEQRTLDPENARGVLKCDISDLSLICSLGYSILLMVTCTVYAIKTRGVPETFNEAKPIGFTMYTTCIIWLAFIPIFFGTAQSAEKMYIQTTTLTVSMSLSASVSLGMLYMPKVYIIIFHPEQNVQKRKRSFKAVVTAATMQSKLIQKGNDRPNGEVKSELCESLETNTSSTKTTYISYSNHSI
`COC(=O)c1ccc(CN(Cc2ccc(C(=O)OC)o2)C(C)(C)C)o1` displayed a z-score of 0.0836.
In turn, `CC(C)CC1(C)NC(=O)N(CC(=O)NC(=O)Nc2ccc3c(c2)OCCO3)C1=O` (configuration not stated) displayed a z-score of 1.27.
Then `CCc1cc(OCCCSc2nc(C)cc(=O)[nH]2)ccc1Cl`, with -1.02; and `O=C(c1ccccn1)N1N=C2/C(=C/c3ccc(F)cc3)CCCC2C1c1ccc(F)cc1` (configuration not stated), with -0.672; and `CCc1nnc(NC(=O)c2cc(S(=O)(=O)N(CC)CC)ccc2Cl)s1`, with -0.0937.
Then `CCCc1cc(-c2[nH]ncc2-c2ccc(C(=O)OCC)o2)c(O)cc1O`, with 0.538.
Then `CCc1ccc(NCc2cc3c(C)nn(-c4ccccc4)c3[nH]c2=O)cc1`, with active: 5.48; and `Cc1cccc(-n2c(C)cc(/C=N/O)c2C)c1`, with -0.205; and `C=CCN1CC(O)=C(c2ccccc2)C1=N`, with 0.216.
`COc1ccc(-c2n[nH]c3c2C(c2ccc(OC)c(OC)c2)N(c2ccccc2)C3=O)cc1` (configuration not stated) showed a z-score of -0.609.
The value for `Cc1cc(C)c(NC(=O)C2CCCN2C(=O)NC2CCCCC2)c(C)c1` (configuration not stated) was 1.35; that for `Cc1ccc(Nc2nc(CSc3nnnn3C)cs2)cc1` was -0.362.
The value for `Cn1c(=O)c2c(nc(NCCCN3CCOCC3)n2Cc2ccc(Cl)cc2)n(C)c1=O` was -0.0118.
Take `O=C(CCNS(=O)(=O)c1c(Cl)cccc1Cl)OCC(=O)c1ccccc1`: the z-score was -0.357.
`C#CC[N+](C)(C)CCCCCCCCCCCC` showed a z-score of 0.358.
The value for `Cc1nn(Cc2ccccc2)c(Cl)c1/C=N/NC(=O)c1cccnc1` was -0.186; that for `Cc1ncc([N+](=O)[O-])n1CC(=O)NCc1ccccc1` was -0.142.
The value for `Cc1ccc(NS(=O)(=O)c2cc(OCC(N)=O)c(C)cc2Cl)cc1` was 0.104.
Then `COc1ccc(-c2c(C)nn(Cc3ccccc3)c2N)cc1`, with -0.171; and `COc1ccc(Cc2nc(-c3cccs3)no2)cc1OC`, with -0.202.
Regarding `CC(C)Oc1cccc(-c2cc(C(=O)NC(=S)N(C)c3ccccc3C(=O)O)c3ccccc3n2)c1`, the z-score was 1.26.
In turn, `CCOc1ccccc1-c1cc(C(=O)N/N=C/c2ccc(O)c(OC)c2)c2ccccc2n1` returned a z-score of -0.512.
The value for `CCOC(=O)C(=CNc1ccc(C)cc1C)C(=O)OCC` was -1.6; that for `O=C(CNC(=O)c1cccs1)NCC(=O)OCc1ccccc1Cl` was 0.219.
The value for `COc1cccc(-n2c(=O)[nH]cc(C(=O)Nc3ccc4c(c3)OCCO4)c2=O)c1` was -0.615.
The value for `CC(C)CNC(=O)c1coc(=O)c(Br)c1` was -0.331; that for `Cc1ccc(CNC(=O)C(=O)NCC(c2ccco2)N2CCOCC2)cc1` (configuration not stated) was 0.092; that for `CC(C)N(CCNC(=O)C1CCC(=O)N1Cc1ccc(F)cc1)Cc1ccccc1` (configuration not stated) was -0.0736.
The compound `COc1cc(/C=N/NC(=O)CN(CCc2ccccc2)S(=O)(=O)c2ccc(NC(C)=O)cc2)cc(OC)c1OC` gave a z-score of -0.0703.
`Cc1ccc(NC(=S)NNC(=O)Cn2nc([N+](=O)[O-])cc2C)cc1`: the z-score stood at 0.0242.
The value for `Cc1ccc(NC(=O)COC(=O)CCC(=O)c2ccc(Cl)cc2)cc1S(=O)(=O)N(C)C` was active: 3.92; that for `O=C(CNC(=O)c1ccco1)NCC(=O)OCc1ccccc1Br` was 0.481.
In turn, `Cc1cccc(NC(=O)C2CC(=O)N(c3ccccc3)C2)c1C` (configuration not stated) returned a z-score of 0.149.
For the compound `Cc1cc(NC(=O)c2ccc(COc3ccc(Cl)c(C)c3)o2)no1`, the z-score is -0.225.
The value for `CCS(=O)(=O)Nc1c(C)n(C)n(-c2ccccc2)c1=O` was 0.522; that for `CCCC(O)(c1ccc(OC)cc1)C(CN(C)C)c1ccccc1` (configuration not stated) was 0.139.
`CCn1c(SCC(=O)c2ccc(O)c(O)c2)nnc1-c1ccccc1` displayed a z-score of -0.27.
As for `COc1ccc(C(=O)Nc2ccccc2Cc2ccccc2)c(OC)c1`, the z-score was -0.617.
The value for `COc1ccc(C(=O)Nc2ccc(C(=O)Nc3nccs3)cc2)cc1[N+](=O)[O-]` was -0.195; that for `O=C(Nc1ccn(Cc2c(F)c(F)cc(F)c2F)n1)c1ccc(COc2ccc(Cl)cc2Cl)o1` was -0.0609; that for `Cc1ccccc1-c1cc2c(nn1)-c1ccccc1C2=O` was -0.0468.
Then `CC(C)CC(NS(=O)(=O)c1ccccc1)C(=O)O` (configuration not stated), with -0.399; and `Cc1cc(C)n(C(=O)CNc2cccc(Cl)c2C)n1`, with -0.289; and `O=C(NC(=S)Nc1ccccn1)c1ccco1`, with 1.2.
The value for `O=C(NCc1ccc2c(c1)OCO2)c1ccc(CSCc2cccc(Cl)c2)o1` was -0.393; that for `CN(c1ccc(C(=O)N2CCN(c3ccc(F)cc3)CC2)cc1)S(C)(=O)=O` was -0.252.
In turn, `Cc1ccccc1-n1c(C)cc(/C=N/NC(=O)c2ccc(CN3CCOCC3)cc2)c1C` returned a z-score of -0.392.
`O=C(CCSc1nc(-c2ccco2)cc(C(F)(F)F)n1)NCCc1ccccc1` yielded a z-score of -1.05.
Then `Cc1ccc(-c2c[n+](CC(=O)N3c4ccccc4Sc4ccccc43)c3n2CCC3)cc1`, with -0.236; and `O=C(c1ccc(Cn2c(=O)[nH]c3ccccc3c2=O)cc1)N1CCN(c2ccc(Cl)cc2)CC1`, with -0.127; and `CCc1nc2oc3ccccc3c(=O)c2c(=O)n1Cc1ccccc1`, with -0.473.
In the case of `O=C(CCCC(=O)N(c1ccc2c(c1)OCCO2)C(C(=O)NC1CCCCC1)c1ccc(F)cc1)Nc1ccccn1` (configuration not stated), the z-score amounted to 0.035.
The value for `Cc1ccc(CN2CCN(/N=C/c3ccc(C(F)(F)F)cc3)CC2)c(C)c1` was -0.0788; that for `CCOc1ccc(N(CC(=O)NCc2ccco2)S(C)(=O)=O)cc1` was 0.0426.
Then `Cc1ccc(C(c2sc3ncnn3c2O)N2CC(C)CC(C)C2)cc1` (configuration not stated), with -0.254; and `O=C(Nc1ccc(S(=O)(=O)N2CCCC2)cc1)c1ccc(CN2CCc3ccccc3C2)cc1`, with 0.383; and `O=C(Nc1nc2c(s1)CCCC2)C1COc2ccccc2O1` (configuration not stated), with -0.35.
Turning to `Cc1ccc(OCCn2c(CCCO)nc3ccccc32)cc1`, the z-score is -1.36.
The value for `Clc1ccc(C2CC(c3ccco3)n3ncnc3N2)cc1Cl` (configuration not stated) was -0.108.
With `Cc1ccc(-n2c(SCC(=O)N/N=C/c3ccc(C)s3)nnc2-c2ccccc2)cc1`, the z-score is -0.987.
Turning to `Cc1nc2c(-c3ccc(F)cc3)c(C)nn2c(C)c1CCC(=O)N1CCN(c2ccccc2)CC1`, the z-score is -0.81.
The value for `Cc1ccc(OCCCN2CCCC2)c(C)c1` was 0.132; that for `CC(C)n1c(NCc2cccs2)nc2ccccc21` was 0.0512.
Turning to `O=C(NCc1ccccc1)C(=O)Nc1nc(C23CC4CC(CC(C4)C2)C3)cs1`, the z-score is active: 3.44.
Compound `O=C1c2cc([N+](=O)[O-])cc3cc([N+](=O)[O-])cc(c23)C(=O)N1c1ccccn1` gave a z-score of -0.0109.
For the compound `Cn1c(C(=O)N(Cc2ccccc2)Cc2ccccn2)cc2sccc21`, the z-score is -1.21.
In turn, `Cc1cccc(-n2c(SCC(=O)NCc3ccco3)nc3ccccc3c2=O)c1` had a z-score of -0.748.
Then `Cn1cnc([N+](=O)[O-])c1Oc1cccc2ccccc12`, with -0.093.
The compound `COc1ccccc1N1CCN(c2cc(=O)n(Cc3ccc(F)cc3)c(=O)[nH]2)CC1` displayed a z-score of 0.024.
Then `CCCn1c(NC(=O)C2COc3ccccc3O2)nc2ccccc21` (configuration not stated), with 0.521.
Then `CC(C)(C)NC(=S)NCc1cccnc1`, with 0.234; and `O=C(NCCc1ccccc1)c1ccc(-n2cnnn2)cc1`, with 0.717.
Then `CC(=O)NS(=O)(=O)c1ccc(N=c2ssc3c2-c2cc(C)c(C)cc2NC3(C)C)cc1`, with 0.114; and `CCCOc1ccc(-c2nnn(CC(=O)c3c[nH]c4ccccc34)n2)cc1`, with -0.0617.
`Cc1cc2cc(C)c3nnc(SCC(=O)Nc4ccc(S(=O)(=O)N5CCCCC5C)cc4)n3c2cc1C` (configuration not stated) showed a z-score of -0.264.
The value for `CC(=O)N(c1nc(CCl)cs1)c1c(C)cc(C)cc1C` was 1.43; that for `O=C(OCc1c(Cl)cccc1Cl)c1ccncc1` was -0.266.
Then `COc1ccc(/C=N/NC(=O)CSc2nnc(CCCc3ccc(OC)c(C)c3)o2)cc1`, with -0.18; and `c1coc(CNc2nc(-c3ccncc3)cs2)c1`, with -0.199; and `O=C(Nc1nc2n(n1)C(c1ccccc1)CC(c1ccc(Cl)cc1)N2)c1ccco1` (configuration not stated), with -1.52.
Then `O=C(c1ccc(Cl)c(S(=O)(=O)N2CCc3ccccc3C2)c1)N1CCN(c2ccccc2)CC1`, with -0.0565.
Regarding `O=C(Cn1c(=S)[nH]c2ccccc21)c1ccccc1`, the z-score was -0.531.
For the compound `O=C(NNC(=O)c1cc(-c2ccc(Cl)cc2Cl)nc2ccccc12)Nc1ccccc1`, the z-score was -0.0621.
In the case of `S=C(NCc1ccncc1)Nc1ccc(Cl)cc1`, the z-score turned out to be 0.311.
Then `OC(CN1C2=NCCCN2c2ccccc21)c1ccc(Cl)cc1` (configuration not stated), with 0.782; and `Cc1cccc(-c2nnc(SCC#N)n2-c2ccccc2)c1`, with -0.239; and `Cc1ccc2oc(=O)c3cnn(CC(=O)N4CCN(c5ccccn5)CC4)c3c2c1`, with -0.87.
Then `Cc1cccc(S(=O)(=O)Nc2nc3ccccc3nc2NCc2ccc3c(c2)OCO3)c1`, with -0.402; and `COc1cc(/C=N/Nc2cccc(C)c2)ccc1OC(=O)c1ccco1`, with -1.01; and `CC(=O)NS(=O)(=O)c1ccc(N=NN2CCCCC2)cc1`, with 0.395.
`C=Cn1c(N2CCOCC2)nc2c1c(=O)[nH]c(=O)n2C` showed a z-score of 0.39.
Compound `COc1ccc(-c2cn3c(C)c(C(=O)Nc4cccc(C)n4)sc3n2)cc1` showed a z-score of -0.14.
Then `Oc1ccccc1N=Cc1sc2ccccc2c1Cl`, with -0.0663; and `Cn1c(CCNC(=O)c2cccs2)nnc1SCC(=O)Nc1nc(-c2ccccc2)cs1`, with -0.799; and `CCOc1ccc(N(C(C)C(=O)N/N=C(\C)c2cccc(NC(=O)c3ccccc3)c2)S(C)(=O)=O)cc1` (configuration not stated), with 0.165.
The value for `COc1ccccc1N1CCN(C(=O)CN(c2ccc(C)c(C)c2)S(C)(=O)=O)CC1` was 0.325.
Compound `ONC(=Nc1ccc(Cl)cc1)c1ccccc1` yielded a z-score of -0.177.
Then `COc1ccc2nc(C)c3cc(C)oc3c2c1`, with -0.404; and `CN(C)S(=O)(=O)N1CCc2ccccc21`, with 0.738.
As for `CC1CCCC(C(=O)O)N1C(=O)CCSC(=O)c1ccccc1` (configuration not stated), the z-score is -0.482.
The value for `CN1CCC(=NNC(=O)C(=O)NCc2ccccc2)CC1` was 0.49; that for `O=C(Cc1ccccc1)Nc1ccc(SC(F)F)cc1` was 0.0729; that for `Cc1cccc(OCCCC(=O)N2CCCc3ccccc32)c1C` was 0.674.
The compound `COc1ccc(-c2cc(-c3nnc(COC(=O)C4CC4C)o3)c3ccccc3n2)cc1OC` (configuration not stated) came in with a z-score of -0.151.
The value for `Cc1cccc(-c2noc(-c3ccc(Cl)cc3[N+](=O)[O-])n2)c1` was -2.09.
Then `Cc1ccc2c(CC(=O)N3CCN(S(=O)(=O)c4cccs4)CC3)coc2c1`, with -0.213; and `C=CCNc1nnc(SC2CC(=O)N(c3ccc(OCCC)cc3)C2=O)s1` (configuration not stated), with -0.0986.
